# Test results from PubChem BioAssay AID434955 (Southern Research Specialized Biocontainment Screening …, 2010).
# Some of the results follow. These are further read-outs of the screen, such as a control signal, another cell line or another target. No call is given for them. Most of these compounds were active or inconclusive in the main read-out, so they are no random draw.
# Assay: beta-lactam sensitization of Mtb H37Rv, H37Rv (AID 434955);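 further: growth measured after seven days incubation then overnight dye step; 0% = bacteria only wells and 100% = bacteria with antibiotic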
# Settings: M. tuberculosis H37Rv growth with meropenem, percent inhibition; measured here: primary screen without meropenem; at 25 µM
row,Compound,inhibition [%]
1,CC(=O)c1cccc(S(=O)(=O)N2CCCC(c3nc(-c4ccc(C)o4)no3)C2)c1 (stereo not drawn),1.72
2,Cn1cc(CN2CCc3ccccc3C2)c2ccccc21,4
3,Cc1cccc(/C=N/NC(=O)c2cc(C)nc3ccccc23)n1,-12
4,CC(C)=CCCC(C)CN1CCC(n2nccc2NC(=O)C2CCCC2)CC1 (stereo not drawn),3.75
5,COc1cccc(C(=O)N(CN2CCCC2=O)c2cc(C)on2)c1,1.12
6,Cc1nn(C)c(C)c1CCC(=O)N1CCCC(N2CCN(c3ccc(F)cc3)CC2)C1 (stereo not drawn),1.43
7,O=C1c2cccc3c(N4CCCCC4)ccc(c23)C(=O)N1c1ccccn1,19.5
8,COCCCn1c(=O)/c(=C\c2cccc(OC)c2OC)s/c1=C(/C#N)C(=O)Nc1ccc(C(=O)O)cc1,47.4
9,CCOc1cccc2cc(C(=O)NCc3cccnc3)c(=O)oc12,6.22
10,Cc1nn(-c2ccccc2)c(Cl)c1CN(C(=O)CCl)c1cccc2ccccc12,20.9
11,O=C(c1cccc(Br)c1)N1CCN(C2=NS(=O)(=O)c3ccccc32)CC1,-5.54
12,COCCn1c(SCC(=O)Nc2ccc(F)cc2)nc2c([nH]c3ccccc32)c1=O,3.89
13,COc1ccc(OC)c(C(=O)COC(=O)c2ccccc2O)c1,-1.97
14,CC(C)[C@H](NC(=O)OCc1ccccc1)C(=O)OCC(=O)NC1(C#N)CCCC1,9.03
15,CC(C)(C)c1nnc2sc(SCC(=O)c3cccs3)nn2c1=O,45.4
16,CCOC(=O)c1cnc(SCC(=O)Nc2ccc(NC(=O)CC)c(OC)c2)nc1N,0.82
17,CCCC(=O)N(Cc1cc(=O)[nH]c2ccccc12)c1ccc(C)cc1,6.43
18,COc1ccc(OCc2cc(C(=O)N3CCCCCC3)no2)c(Cl)c1,2.59
19,CCN(CC)C(=O)CSc1nnc2sc3ccccc3n12,-2.75
20,CCOC(=O)c1ccc(NC(=O)C2CC2)cc1,-0.06
21,CC(C)OC(=O)c1sc2nc(-c3ccccc3)ccc2c1N,1.65
22,O=C(Nc1ccnn1C1CCN(C(=O)c2ccc(F)c(Cl)c2)CC1)C1CC1,1.76

row,Compound,inhibition [%]
1,O=C(N/N=C/c1ccccc1O)C1SCCCS1,13.3
2,CCOc1ccc(N(CC(=O)NCCc2ccc(F)cc2)S(=O)(=O)c2ccccc2)cc1,1.12
3,Cc1ccc(C(=O)COC(=O)C(C)N2C(=O)C3C4CCC(C4)C3C2=O)cc1 (stereo not drawn),1.13
4,COc1cc(/C=C2\N=C(C)OC2=O)cc(Cl)c1OC(C)=O,8.36
5,COC(=O)c1c(N2C(=O)CCC2=O)sc2c1CCCC2,-9.3
6,CCOC(=O)c1c(C)oc2c1c(CN1CCN(C(=O)OCC)CC1)c(O)c1ccccc12,2.51
7,COc1ccccc1-c1oc2ccccc2c1C#CC(C)(C)O,74.9
8,O=C(CCNC(=O)c1ccc(Br)o1)NCc1ccccc1Cl,-2.23
9,Cc1ccc(C)c(N(CC(=O)NC2CCCC2)S(=O)(=O)c2ccccc2)c1,-3.04
10,Cc1ccc(CNC(=O)COc2ccc(S(=O)(=O)NC(C)C)cc2)cc1,10.8
11,Cc1cccnc1NC(=S)NC(=O)c1cncc(Br)c1,40.6
12,O=C(CN(CCc1ccccc1)Cc1ccccc1)Oc1ccccc1P(=O)(O)O,1.4
13,O=c1oc(-c2cccs2)nc2sc3c(c12)CCCC3,9.65
14,COc1ccc(-c2csc3ncnc(N4CCN(c5cccc(OC)c5)CC4)c23)cc1,-2.01
15,CCOCCCNC(=O)Cn1cc2c(n1)CCCCC2,-4.15
16,Cc1c(OCc2ccc(C(=O)O)cc2)ccc2c(-c3ccccc3)cc(=O)oc12,4.8
17,COc1ccccc1CNC(=O)COC(=O)C1=COCCO1,20.9
18,Cc1cccc(OCC(O)Cn2c(=N)n(CCN3CCCCC3)c3ccccc32)c1 (stereo not drawn),98.2
19,CCOc1ccc(C(=O)Nc2c3c(nn2-c2cccc(Cl)c2)CS(=O)C3)cc1 (stereo not drawn),-7.54
20,CCCCCCc1nc(C(N)=O)c2[nH]c(=O)n(-c3ccccc3F)c2n1,3.87
21,CCN(CC)c1ccc(NC(=O)c2cc(Cl)ccc2OC)cc1,21.9
22,COC(=O)c1ccccc1NC(=O)CSCC(=O)Nc1ccc(F)cc1,33.2

row,Compound,inhibition [%]
1,Cc1ccc(C(C)C)c(OCc2ccc(C(=O)N/N=C/c3ccc(C(=O)O)cc3)cc2)c1,2.09
2,O=C(Nc1ccc(Oc2ccccc2)nc1)C1CCCCN1Cc1ccc(O)cc1 (stereo not drawn),1.09
3,Cc1ccc(N2CCN(S(=O)(=O)c3ccc(F)cc3)CC2)c(C)c1,2.21
4,CC(C)c1ccc(/C=C(/C#N)c2nnc(NC(=O)c3ccccc3)s2)cc1,-0.98
5,CSc1nc2c(c(=O)[nH]c(=O)n2C)n1C/C=C(\C)Cl,1.07
6,COc1ccc(S(=O)(=O)N2CCCC2C(=O)Nc2ccc(O)cc2)cc1 (stereo not drawn),-6.05
7,CCN(CCCNC(=O)COc1cc(=O)n(CC)c2ccccc12)Cc1ccccc1,-16.7
8,Cc1ccc(NC(=O)CCS(=O)(=O)c2cccc3nonc23)cc1,13.6
9,Cc1ccc(N(C)S(=O)(=O)c2c(C)[nH]c(C)c2C(=O)N2CCCC2)cc1,3.19
10,CCOC(=O)C1=C(N)OC(C)=C(C#N)C1c1ccco1 (stereo not drawn),-7.49
11,COc1cc2c(cc1OC)CN(CC(=O)Nc1ccc(C)c(C)c1)CC2,0.13
12,COc1ccc(CNC(=O)c2cnc(C)cn2)c(OC)c1,-2.02
13,O=C(c1ccccc1F)N1CCN(C(=O)C2CC2)CC1,2.5
14,COc1ccc(S(=O)(=O)Nc2cc3[nH]c(=O)oc3cc2C)cc1,-0.66
15,COc1ccc(N2CCN(C(=O)CCCOc3cc(=O)n(C)c4ccccc34)CC2)cc1,-0.49
16,CC1Cn2c(nnc2-c2cccc(Cl)c2)S1 (stereo not drawn),-7.11
17,Cc1ccc(-n2nc3c(c2NC(=O)C(C)C)CS(=O)(=O)C3)cc1,5.02
18,O=C(COc1ccc2ccccc2c1)Nc1nc2ccccc2[nH]1,24.2
19,Cc1cc(C)nc(NC(=O)Nc2ccccc2C(F)(F)F)n1,1.49
20,CCC1(C)Cc2c(sc3c2c(=O)n(C)c2nnc(SCC(=O)c4ccccc4)n32)CO1 (stereo not drawn),-2.92
21,Cc1ccccc1C(=O)Nc1ccnn1C1CCN(Cc2ccncc2)CC1,4.05
22,CCC(=O)Nc1cccc(-c2ccc(N3CCC(C)CC3)nn2)c1,-0.02

row,Compound,inhibition [%]
1,COc1cccc(C2CC(c3cccc(Br)c3)n3ncnc3N2)c1 (stereo not drawn),2.56
2,CCCC(C)NC(=O)c1ccccc1SC (stereo not drawn),-4.31
3,CC(C)(C)NCCCOc1ccc(Cl)cc1C(C)(C)C,-11.2
4,Cc1ccc(NS(=O)(=O)c2cc3[nH]c(=O)c(=O)[nH]c3cc2C)c(C)c1,-1.8
5,O=C(CN1C(=O)c2cccnc2Oc2ccc(Cl)cc21)N1CCCCCC1,7.35
6,CCn1cc(C(=O)N[C@@H](C)C(=O)OC)c(=O)c2cc3c(cc21)OCO3,0.2
7,Cc1cc(NC(=O)c2ccc3c(c2)OCCO3)ccc1NC(=O)c1cc2ccccc2o1,22.6
8,Cc1cccc(CCNC(=O)CC2C(=O)NCCN2Cc2ccccc2C)n1 (stereo not drawn),0.25
9,CCOC(=O)c1ccc(C(=O)NNC(=O)C2CC=CCC2)cc1 (stereo not drawn),12
10,O=C(Nc1ccc(Br)cc1)c1cccc(N2C(=O)CCC2=O)c1,-7.3
11,CCC(NC(=O)c1cc(COc2c(F)cccc2F)on1)c1ccncc1 (stereo not drawn),-2.33
12,COC(=O)c1cnn(-c2ccccc2)c1/C=N/NC(=S)Nc1ccc(Cl)cc1,24.4
13,CCOC(=O)CN1CC23C=CC(O2)C(C(=O)NC2CCCC2)C3C1=O (stereo not drawn),-4.61
14,CCC(C)(C(=O)NC1CCCCC1)N(CC1CCCO1)C(=O)CNC(=O)c1ccccc1 (stereo not drawn),-1.72
15,CC(C)c1csc(CN2CCC(n3nccc3NC(=O)Cc3ccccc3)CC2)n1,-5.99
16,Cc1ccc(-n2c(SCC(=O)Nc3ccc4c(c3)OCO4)nnc2-c2ccccn2)cc1,9.22
17,O=C(OC(C(=O)NC1CCCC1)c1ccccc1F)c1ccco1 (stereo not drawn),2.72
18,CCC(C)(C(=O)NC1CCCCC1)N(C(=O)c1ccccn1)c1ccc(C)cc1 (stereo not drawn),-0.42
19,CC(=O)Nc1ccc(S(=O)(=O)N2CCN=C2SCc2ccc([N+](=O)[O-])cc2)cc1,-2.03
20,COc1cc(CN2CCC(n3nccc3NC(=O)c3ccc4c(c3)OCO4)CC2)ccc1O,-2.64
21,CCCc1cc(=O)[nH]c(SCC(=O)N2CCC(C)CC2)n1,-1.53
22,CC12CCC(=O)N1C(C(=O)Nc1ccccc1N1CCOCC1)CS2 (stereo not drawn),-0.84

row,Compound,inhibition [%]
1,Cc1cc(C(=O)Nc2cccc3ncccc23)no1,3.35
2,Cc1cc(CN2CCC(N3CCC(C(=O)NC4CC4)CC3)CC2)cc(C)c1O,-3.01
3,COCCCNC(=O)C1CCN(S(=O)(=O)c2c(C)noc2/C=C\c2ccc(OC)cc2)CC1,-7.52
4,O=C(c1ccc(S(=O)(=O)N2CCCC2)cc1)N1CCN(c2cccc(Cl)c2)CC1,-7.89
5,Clc1ccc(N2CCCCCC2)nn1,2.5
6,Cc1ccc2c(c1)nnn2C1CCN(C(=O)C2CCCCC2)CC1,4.72
7,CN(C)CC(=O)Nc1nc(-c2ccccc2)cs1,33.6
8,CCn1cc(C2=NOC(C(=O)Nc3cc(C)nn3-c3ccccc3)C2)c(C)n1 (stereo not drawn),0.63
9,COC(=O)CSc1nnc(NC(=O)C2CC(=O)N(c3ccc(F)cc3)C2)s1 (stereo not drawn),-4.63
10,Cc1ccccc1/C=N\NC(=O)c1csnn1,16.6
11,COc1ccc(NC(=O)/C(C#N)=C/c2ccc(OCCN3CCOCC3)c(OC)c2)c(OC)c1,-2.5
12,CCN(c1cccc(C)c1)S(=O)(=O)c1cccc(C(=O)O)c1,-4.17
13,Cc1ccc(OCC(=O)N/N=C/c2cn(C)c3ccccc23)cc1,8.03
14,Cc1cc(NC(=O)COc2nnc(-c3ccccc3)c3ccccc23)no1,27
15,CC1(C)Cc2c(sc(NC(=O)C(=O)N3CCN(CCO)CC3)c2C(N)=O)CO1,-4.47
16,CCCn1c(=O)c2c(nc3n2CCCN3Cc2ccccc2)n(C)c1=O,-4.2
17,CC1(C)Cc2nc3[nH]c(=S)n(-c4ccccc4)c(=O)c3cc2CO1,2.73
18,N#CCOC(=O)/C=C/c1ccc2c(c1)OCO2,14.8
19,Cc1ccc(/C=C2\SC(=S)N(CCC(=O)Nc3cccnc3)C2=O)cc1,-1.17
20,COc1cc(CN2CCC(n3nccc3NC(=O)c3ccccc3OC)CC2)ccc1F,7.24
